The campaign covered roughly 52,000 compounds. About 4,300 (8.3%) were called active. Cut-off read from the data, not from the text of the source: active = survival mostly below about 52% (no sharp cut-off); inactive = mostly above about 56%. The list shows a part of the results.
The compounds below were run on DeltatarO mutant (assay: S. aureus survival, RN4220 and DeltatarO strains – OD600, teichoic acid synthesis inhibitors, primary screen (AID 463173)). Details: S. aureus RN4220 wild type/DeltatarO growth, OD600, 18 h, active compounds read low, screened at 18.75 µg/mL (by protocol).

Q: How did the survival turn out when `COCc1[nH]nc2c1C1(CCC(C(C)(C)C)CC1)C(C#N)=C(N)O2` (stereo not given) was run?
A: inactive: 96%

Q: With `O=C(NCCc1csc(-c2ccc(Cl)cc2)n1)c1cccs1` as the compound, how does the survival read?
A: inactive: 89%

Q: How did the survival turn out when `COC(=O)c1c(NC(=O)CCCOc2ccc(C(C)(C)C)cc2)sc2c1CCC(C)C2` (stereo not given) was run?
A: active: 28%

Q: `COc1ccc(NC(=O)/C(C#N)=C/c2ccc(OCc3cc(=O)n4nc(C)sc4n3)cc2)cc1` was tested. Which survival did it give?
A: inactive: 61%

Q: For `COC(=O)c1ccc(-n2nc(C)cc2C)cc1`, which survival is on record?
A: inactive: 95%

Q: For `CC1CCN(C(=O)CSc2nnc(-c3ccccc3Cl)o2)CC1`, which survival is on record?
A: inactive: 104%

Q: How did the survival turn out when `CCN(C(=O)Cn1nc(Cc2cccnc2)c2ccccc2c1=O)c1ccccc1F` was run?
A: inactive: 84%

Q: Which survival does the source give for `O=S(=O)(Nc1ccc2oc3c(c2c1)CCCC3)c1cc(Cl)ccc1Cl` here?
A: active: 33%

Q: `CCN(CC)Cn1nc(-c2ccccc2Cl)oc1=S` was tested. Which survival did it give?
A: inactive: 77%

Q: Which survival does the source give for `CC(C)COc1ccc(C(=O)Nc2cccc(-c3nc4ccccc4[nH]3)c2)cc1` here?
A: active: 43%

Q: `Cc1cc(C)cc(NC(=O)CCS(=O)(=O)c2cc3c4c(c2)CCN4C(=O)CC3)c1` was tested. Which survival did it give?
A: inactive: 74%

Q: `CCc1ccc(OC(C)C(=O)N2CCC(c3nc4ccccc4s3)CC2)cc1` (stereo not given) was tested. Which survival did it give?
A: active: 28%

Q: How did the survival turn out when `O=C(NC1(C(F)(F)F)C(=O)Nc2c1c(=O)[nH]c(=O)n2CCc1ccccc1)c1ccc(Cl)cc1Cl` (stereo not given) was run?
A: inactive: 76%

Q: Which survival does the source give for `COc1ccccc1-c1cc2nc(C)c(CCC(=O)Nc3ccc(Br)c(C)c3)c(C)n2n1` here?
A: inactive: 67%

Q: Which survival does the source give for `CN(Cc1ccccc1)Cn1[nH]c(=O)ccc1=O` here?
A: inactive: 110%

Q: With `CCn1cc(C(=O)N2CCN(c3cccc(C(F)(F)F)c3)CC2)c2cc(OC)c(OC)cc2c1=O` as the compound, how does the survival read?
A: inactive: 120%

Q: For `CC(C)CN(CCCNC(=O)Cn1ncc2c3ccccc3n(C)c2c1=O)CC(C)C`, which survival is on record?
A: inactive: 92%

Q: How did the survival turn out when `COc1ccc(Cl)cc1NC(=O)CCS(=O)(=O)c1nc(-c2cccs2)cc(C(F)(F)F)n1` was run?
A: inactive: 63%

Q: Which survival does the source give for `CCOC(=O)c1ccc(NC(=O)Nc2c[nH]c(=O)[nH]c2=O)cc1` here?
A: inactive: 99%

Q: `Cc1ccc(CNC(=O)c2cc3c(s2)-c2ccccc2SC3)cc1` was tested. Which survival did it give?
A: inactive: 94%

Q: How did the survival turn out when `CCOC(=O)c1cc(-c2ccccc2)n(CC(=O)NC(C)c2ccccc2)c1C` (stereo not given) was run?
A: inactive: 91%

Q: Which survival does the source give for `COC(=O)c1nnn(CC(=O)NC(=O)Nc2cccc(C)c2C)c1C(=O)OC` here?
A: inactive: 82%

Q: Which survival does the source give for `CCc1nc2ccc(C(=O)N3CCN(c4ccccc4)CC3)cc2nc1CC` here?
A: inactive: 113%

Q: With `COc1ccc2c(c1)CCc1c(C(=O)Nc3ccc(F)c(Cl)c3)noc1-2` as the compound, how does the survival read?
A: inactive: 62%

Q: `CCOc1ccc(/C=C(\C#N)c2nc3ccccc3c(=O)[nH]2)cc1OC` was tested. Which survival did it give?
A: inactive: 94%

Q: `O=C(CSc1nnc(-c2ccccc2)c(-c2ccccc2)n1)NC1CCCCC1` was tested. Which survival did it give?
A: inactive: 85%

Q: How did the survival turn out when `CCOc1ccc(-c2nonc2NC(=O)c2oc3ccc(Br)cc3c2C)cc1` was run?
A: inactive: 50%

Q: With `CCOC(=O)N1CCc2c(sc(NCc3cccc(F)c3)c2C(=O)Nc2ccccc2OCC)C1` as the compound, how does the survival read?
A: inactive: 89%

Q: `Cc1nc(N2C(=O)c3oc4ccccc4c(=O)c3C2c2cccc(OCCC(C)C)c2)sc1C` (stereo not given) was tested. Which survival did it give?
A: inactive: 59%

Q: For `Cc1ccc(N2CC(NC(=O)Cc3cccs3)CC2=O)cc1C` (stereo not given), which survival is on record?
A: active: 25%

Q: `O=S(=O)(Nc1ccc(-c2ccc(N3CCCC3)nn2)cc1)c1ccc(Cl)cc1` was tested. Which survival did it give?
A: inactive: 102%

Q: Which survival does the source give for `Cc1c(C(=O)OC2CCCC2)[nH]c2c1C(=O)CC(c1ccc(Cl)cc1)C2` (stereo not given) here?
A: inactive: 94%

Q: `COc1ccc(C(C(=O)NC2CCCC2)N(Cc2ccco2)C(=O)Cn2nc(C(F)(F)F)c3c2CCCC3)cc1` (stereo not given) was tested. Which survival did it give?
A: inactive: 91%

Q: `COc1ccc(CNc2oc(C)nc2C#N)cc1` was tested. Which survival did it give?
A: inactive: 88%

Q: Which survival does the source give for `CC(=O)N1CCc2c(sc3c2c(=O)n(-c2ccccc2)c(=O)n3CC(=O)Nc2cccc(C)c2)C1` here?
A: inactive: 73%

Q: Which survival does the source give for `CCOc1ccc(CNS(=O)(=O)c2c(C(=O)N3CCC(C)CC3)c(C)n(C)c2C)cc1OC` here?
A: inactive: 81%

Q: `CCOc1cc(-c2nnc(SCC(=O)Nc3ccc(F)c(F)c3)nc2-c2ccc(OC)c(OCC)c2)ccc1OC` was tested. Which survival did it give?
A: inactive: 96%

Q: Which survival does the source give for `COc1ccc(S(=O)(=O)N(CCc2ccccc2)CC(=O)Nc2ccc(C)c(C)c2)cc1OC` here?
A: inactive: 62%

Q: For `CCC(=O)Nc1nnc(SCc2cc(=O)c3cc(C)ccc3[nH]2)s1`, which survival is on record?
A: inactive: 77%

Q: `Cc1csc(-c2cc3ccccc3oc2=O)n1` was tested. Which survival did it give?
A: inactive: 85%

Q: With `O=C(Nc1cccc(-c2nc3ccccc3o2)c1)c1ccc(-c2ccc(Br)cc2)o1` as the compound, how does the survival read?
A: active: 39%

Q: How did the survival turn out when `O=C(c1ccc(F)cc1)N1c2nc(-c3ccco3)nn2C2(CCCCC2)[C@@H]2CCCC[C@@H]21` was run?
A: inactive: 53%

Q: How did the survival turn out when `CC1CCCN(S(=O)(=O)c2ccc(N)cc2)C1` (stereo not given) was run?
A: inactive: 91%

Q: For `CCOc1ccc(OCC)c(NS(=O)(=O)c2cc(Br)cc3c2N(C(C)=O)C(C)C3)c1` (stereo not given), which survival is on record?
A: inactive: 65%

Q: Which survival does the source give for `Cc1cc(=O)[nH]c(SC(C)C(=O)Nc2ccccc2)n1` (stereo not given) here?
A: inactive: 90%

Q: For `CC(C)N(C(=O)CSc1nc2ccc(Cl)cc2[nH]1)c1ccccc1`, which survival is on record?
A: inactive: 107%

Q: With `Nc1nc2cc3c(cc2s1)OCCO3` as the compound, how does the survival read?
A: inactive: 105%

Q: `Nc1cccc2c1C(=O)N(CC(=O)O)C2=O` was tested. Which survival did it give?
A: inactive: 99%

Q: For `CCN(CC)C(=O)CSc1nc(-c2ccccc2F)nc2c1Cc1c(CO)cnc(C)c1O2`, which survival is on record?
A: inactive: 101%

Q: How did the survival turn out when `Cc1c(-c2ccc(Br)cc2)c(=O)oc2ccc(OC(=O)N3CCOCC3)cc12` was run?
A: inactive: 86%

Q: With `COc1ccc(OC)c(-c2nnc3n(Cc4ccc(C)cc4)c(=O)c4ccccc4n23)c1` as the compound, how does the survival read?
A: inactive: 88%

Q: `CC(C)(C)OC(=O)N1CCC(c2c(C(=O)N3CCCCC3)cnn2-c2ccc(Cl)cc2)CC1` was tested. Which survival did it give?
A: inactive: 66%

Q: With `CCOc1cc(C(=O)NCCc2csc3nc(-c4ccc(C)cc4)nn23)cc(OCC)c1OCC` as the compound, how does the survival read?
A: inactive: 94%

Q: Which survival does the source give for `COC(=O)c1ccccc1NC(=O)CSc1nc2ccsc2c(=O)n1CCC(C)C` here?
A: inactive: 88%

Q: How did the survival turn out when `c1ccc(CSc2ncnc3c2cnn3-c2ccccc2)cc1` was run?
A: inactive: 116%

Q: For `CC(=O)c1cccc(NC(=O)c2sc(-n3nc(C)c(Cc4ccc5c(c4)OCO5)c3C)nc2C)c1`, which survival is on record?
A: inactive: 87%

Q: `CCOc1ccc(-c2cccc(NS(=O)(=O)c3c(C)cc(C)cc3C)c2)nn1` was tested. Which survival did it give?
A: inactive: 87%

Q: For `COc1ccccc1CCNC(=O)C(=O)NCC(c1ccc2c(c1)OCO2)N1CCOCC1` (stereo not given), which survival is on record?
A: inactive: 83%

Q: How did the survival turn out when `Cc1ccc2oc3c(c(=O)c2c1)C(c1ccc(F)cc1)N(Cc1ccc2c(c1)OCO2)C3=O` (stereo not given) was run?
A: inactive: 77%

Q: `COc1cccc(CNC(=O)C(=O)Nc2c3c(nn2-c2ccccc2)CSC3)c1` was tested. Which survival did it give?
A: inactive: 84%

Q: How did the survival turn out when `CCN(C(=O)C1CCN(S(=O)(=O)c2ccc3c(c2)CCCN3C(C)=O)CC1)c1cccc(C)c1` was run?
A: inactive: 88%

Q: For `Cc1c(Cl)cccc1NC(=O)Cn1c(CCC(=O)O)ccc1-c1cccs1`, which survival is on record?
A: inactive: 50%

Q: How did the survival turn out when `CCOC(=O)c1c(NC(C)=O)c2c3c(sc2n1Cc1nc(-c2cccc(Cl)c2)oc1C)CCCC3` was run?
A: inactive: 96%

Q: With `CCOC(=O)c1c(S(=O)(=O)N2CCCC(C(=O)NCc3ccc(Cl)cc3)C2)c(C)n(C)c1C` (stereo not given) as the compound, how does the survival read?
A: inactive: 73%

Q: With `COc1ccc(F)cc1S(=O)(=O)NCCc1csc2nc(-c3cccc(C)c3)nn12` as the compound, how does the survival read?
A: inactive: 102%

Q: Which survival does the source give for `COC(=O)c1ccc(OCC2c3cc(OC)c(OC)cc3CCN2C(=O)COc2ccc(Cl)cc2)cc1` (stereo not given) here?
A: inactive: 78%

Q: `O=C(c1ccccc1Cl)N1c2ncnn2C2(CCCCC2)[C@@H]2CCCC[C@@H]21` was tested. Which survival did it give?
A: inactive: 96%

Q: Which survival does the source give for `Cc1cc(C)nc(SCC(=O)Nc2nc(=O)c3ccccc3s2)n1` here?
A: inactive: 73%

Q: How did the survival turn out when `COc1ccc(Cc2nc3ccccc3[nH]c2=O)cc1` was run?
A: inactive: 58%

Q: For `C=Cc1ccc(Cn2c(C)c(CNCc3cccc(Br)c3)c(C(=O)O)c2C)cc1`, which survival is on record?
A: inactive: 73%

Q: `Cc1cccc(Cn2c(CNS(=O)(=O)c3ccc4c(c3)CCCC4)nc3cccnc32)c1` was tested. Which survival did it give?
A: inactive: 102%

Q: Which survival does the source give for `CCCCN(C(=O)C1CCC1)c1nnc(-c2ccncc2)s1` here?
A: inactive: 96%

Q: For `Cc1c(Cl)cccc1-c1ccc(C(=O)Nc2ccc(F)cc2)o1`, which survival is on record?
A: active: 1%

Q: With `CCOC(=O)C1=C(C)NC(=O)NC1c1ccccc1` (stereo not given) as the compound, how does the survival read?
A: inactive: 70%

Q: With `Cc1ccc(-n2c(=O)c3c(C)c(C(=O)N(C)C)sc3n(CC(=O)C(C)(C)C)c2=O)cc1C` as the compound, how does the survival read?
A: inactive: 107%

Q: For `CCc1ccc(-n2nc(C)c3c(C)cc(=O)n(CC(=O)N4CCCc5ccccc54)c32)cc1`, which survival is on record?
A: inactive: 82%

Q: With `O=c1cc(-c2ccccc2)n2c(SCc3ccccc3)nnc2[nH]1` as the compound, how does the survival read?
A: inactive: 80%

Q: `Cc1ccc(C(=O)NCC(=O)O)o1` was tested. Which survival did it give?
A: inactive: 100%

Q: For `Cc1c(C(=O)N(Cc2ccccc2F)C2CCS(=O)(=O)C2)oc2ccc(F)cc12` (stereo not given), which survival is on record?
A: inactive: 95%

Q: `CCOC(=O)c1noc2ncn(CC(=O)Nc3ccc(C)c(F)c3)c(=O)c12` was tested. Which survival did it give?
A: inactive: 82%

Q: How did the survival turn out when `Cc1cccc(NC(=O)CCS(=O)(=O)c2ccc3c(c2)n(C)c(=O)c(=O)n3C)c1C` was run?
A: inactive: 129%

Q: How did the survival turn out when `CCOC(=O)C1CCCN(C(=O)c2nn(-c3ccc(OC)cc3)c(=O)c3c2c2ccccc2n3C)C1` (stereo not given) was run?
A: inactive: 114%

Q: How did the survival turn out when `Nc1nc(Nc2ccccc2F)sc1C(=O)c1ccc(Cl)cc1` was run?
A: active: 2%

Q: `CCc1cccc(NC(=O)C2CCN(C(=O)c3cnn(-c4ccccc4)c3-n3cccc3)CC2)c1` was tested. Which survival did it give?
A: inactive: 61%

Q: With `Cc1ccc(-n2nc(CO)c(C(=O)NCc3ccccn3)n2)cc1C` as the compound, how does the survival read?
A: inactive: 111%

Q: With `CC1CCn2c(nc3cc(C(=O)NCCc4ccc(Cl)cc4)ccc32)C1` (stereo not given) as the compound, how does the survival read?
A: inactive: 102%

Q: Which survival does the source give for `COc1ccccc1/C=C/C(=O)N1CCC(C(N)=O)CC1` here?
A: inactive: 99%

Q: Which survival does the source give for `C=CCNC(=O)c1ccccc1NC(=O)C1COc2ccccc2O1` (stereo not given) here?
A: inactive: 79%

Q: How did the survival turn out when `c1ccc(CCCNc2ncccn2)cc1` was run?
A: inactive: 102%

Q: Which survival does the source give for `COc1ccc(N2CC(NC(=O)COc3ccccc3)CC2=O)cc1OC` (stereo not given) here?
A: inactive: 90%

Source: PubChem BioAssay AID463173 (ICCB-Longwood Screening Facility, Harvard Medical School, 2010)
